In the supplement of paper PMC4967469:

Experiments:
Assay in all cases: Viability of human cancer cell lines after 72 h of drug (GDSC screen)
Midostaurin = compound: CO[C@@H]1[C@H](N(C)C(=O)c2ccccc2)C[C@H]2O[C@]1(C)n1c3ccccc3c3c4c(c5c6ccccc6n2c5c31)C(=O)NC4 [Midostaurin]; settings: top dose 0.512 µM; top dose inferred
Method: (§1)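 Human cancer cell lines in 384-well plates, medium with 10% serum, drug for 72 h over a 256-fold dose range (nine 2-fold or five 4-fold steps up to the top dose). Adherent lines were fixed and stained with the nucleic acid dye Syto60, suspension lines read with resazurin; signal relative to control wells, capped at 0 and 100%. One two-parameter sigmoid per drug and line, fitted in a mixed model over all curves with the slope shared within a line.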

Mitomycin C = compound: CO[C@@]12[C@H](COC(N)=O)C3=C(C(=O)C(C)=C(N)C3=O)N1C[C@@H]1N[C@@H]12 [Mitomycin C]; settings: top dose 16 µM
Method: as §1

Bosutinib = compound: COc1cc(Nc2c(C#N)cnc3cc(OCCCN4CCN(C)CC4)c(OC)cc23)c(Cl)cc1Cl [Bosutinib]; settings: top dose 2 µM
Method: as §1

NVP-BHG712 = compound: Cc1ccc(C(=O)Nc2cccc(C(F)(F)F)c2)cc1Nc1nc(-c2cccnc2)nc2c1cnn2C [NVP-BHG712]; settings: top dose 10.24 µM; top dose inferred
Method: as §1

IOX2 = compound: O=C(O)CNC(=O)c1c(O)c2ccccc2n(Cc2ccccc2)c1=O [IOX2]; settings: top dose 0.1 µM; top dose inferred
Method: as §1

Row | Cell Line | AUC (Midostaurin) | IC50 (Midostaurin) [nM] | AUC (Mitomycin C) | IC50 (Mitomycin C) [nM] | AUC (Bosutinib) | IC50 (Bosutinib) [nM] | AUC (NVP-BHG712) | IC50 (NVP-BHG712) [nM] | AUC (IOX2) | IC50 (IOX2) [nM]
1 | NCI-H2087 (lung adenocarcinoma, semi-adherent) | 0.892 | > 512 | 0.172 | 92 | 0.986 | > 2000 | 0.803 | 5560 | 0.914 | > 100
2 | ESS-1 (endometrium, adherent) | 0.884 | 456 | 0.132 | 82.3 | 0.977 | > 2000 | 0.99 | > 10200 | 0.959 | > 100
3 | MS751 (cervix, adherent) | 0.915 | > 512 | 0.246 | 199 | 0.959 | > 2000 | 0.972 | > 10200 | 0.986 | > 100
4 | PANC-03-27 (pancreas, adherent) | 0.763 | 174 | 0.243 | 193 | 0.978 | > 2000 | 0.901 | > 10200 | 0.987 | > 100
5 | EPLC-272H (lung squamous cell carcinoma, adherent) | 0.907 | > 512 | 0.226 | 141 | 0.869 | > 2000 | 0.902 | > 10200 | 0.976 | > 100
6 | HCC1143 (breast, adherent) | 0.975 | > 512 | 0.53 | 1250 | 0.956 | > 2000 | 0.945 | > 10200 | 0.974 | > 100
7 | IGR-1 (melanoma, adherent) | 0.874 | 394 | 0.301 | 299 | 0.99 | > 2000 | 0.818 | 4900 | 0.934 | > 100
8 | NCI-H841 (small cell lung carcinoma, adherent) | 0.94 | > 512 | 0.651 | 2630 | 0.913 | > 2000 | 0.958 | > 10200 | 0.962 | > 100
9 | MHH-ES-1 (Ewing sarcoma, adherent) | 0.796 | 237 | 0.087 | < 62.5 | 0.834 | 1280 | 0.928 | > 10200 | 0.984 | > 100
10 | BL-41 (Burkitt lymphoma, suspension) | 0.907 | 404 | 0.306 | 332 | 0.909 | 1610 | 0.759 | 2830 | 0.982 | > 100
11 | HOS (osteosarcoma, adherent) | 0.886 | 404 | 0.221 | 184 | 0.937 | > 2000 | 0.992 | > 10200 | 0.991 | > 100
12 | NCI-H1792 (lung adenocarcinoma, adherent) | 0.85 |  | 0.437 | 686 | 0.916 | > 2000 | 0.907 | > 10200 | 0.977 | > 100
13 | 647-V (bladder, adherent) | 0.97 | > 512 | 0.186 | 114 | 0.897 | > 2000 | 0.976 | > 10200 | 0.986 | > 100
14 | CHSA0108 (chondrosarcoma, adherent) | 0.687 | 117 | 0.738 | 5400 | 0.931 | > 2000 | 0.846 | 9270 | 0.982 | > 100
15 | KYSE-510 (oesophagus, adherent) | 0.819 | 231 | 0.019 | < 62.5 | 0.985 | > 2000 | 0.988 | > 10200 | 0.992 | > 100
16 | KYSE-150 (oesophagus, adherent) | 0.813 | 262 | 0.145 | 83.8 | 0.961 | > 2000 | 0.985 | > 10200 | 0.987 | > 100
17 | Hs939-T (melanoma, adherent) | 0.964 | > 512 | 0.479 | 870 | 0.971 | > 2000 | 0.912 | > 10200 | 0.965 | > 100
18 | A2058 (melanoma, adherent) | 0.878 | 424 | 0.149 | 97 | 0.951 | > 2000 | 0.976 | > 10200 | 0.956 | > 100
19 | NCI-H1623 (lung adenocarcinoma, adherent) | 0.979 | > 512 | 0.511 | 1080 | 0.978 | > 2000 | 0.968 | > 10200 | 0.978 | > 100
20 | MOG-G-UVW (glioma, adherent) | 0.883 | > 512 | 0.342 | 368 | 0.8 | 933 | 0.981 | > 10200 | 0.975 | > 100
21 | SW48 (large intestine, adherent) | 0.736 | 150 | 0.268 | 220 | 0.884 | > 2000 | 0.952 | > 10200 | 0.982 | > 100
22 | MDA-MB-175-VII (breast, adherent) | 0.959 | > 512 | 0.69 | 3610 | 0.954 | > 2000 | 0.913 | > 10200 | 0.986 | > 100
23 | SNU-423 (liver, adherent) | 0.768 | 224 | 0.564 | 1540 | 0.98 | > 2000 | 0.939 | > 10200 | 0.981 | > 100
24 | G-MEL (melanoma, adherent) | 0.873 | 484 | 0.236 | 174 | 0.803 | 979 | 0.778 | 4100 | 0.974 | > 100
25 | SNG-M (endometrium, adherent) | 0.891 | > 512 | 0.223 | 159 | 0.887 | > 2000 | 0.776 | 4000 | 0.962 | > 100
26 | GMS-10 (glioma, adherent) | 0.931 | > 512 | 0.652 | 2620 | 0.919 | > 2000 | 0.988 | > 10200 | 0.983 | > 100

IC50 is the fitted dose that halves viability relative to control wells, and lower means more sensitive; fits outside the tested doses are given as limits. AUC sums up the same curve from the lowest dose to the 256-fold higher top dose; values near 1 show little effect. For some of these results: A top dose marked as inferred comes from the curve model; the source does not state it.
